Measured values taken from the supplement of paper PMC4604168 (melanoma cell lines).
The other results are listed elsewhere or left out. Repeats are few or missing, and single values can be far off.
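Note: cell number obtained by counting DAPI-stained nuclei in high-throughput microscope images with image analysis software, screen run in 1,536-well plates.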

Each molecule was assayed on MEL-HO (assay: cell count relative to DMSO control; melanoma cells; higher = more viable cells). Conditions: library dose: low library concentration; 72 h.
With Cn1cnc2c(F)c(Nc3ccc(Br)cc3Cl)c(C(=O)NOCCO)cc21 [selumetinib] + O=C(Oc1ccc([N+](=O)[O-])cc1)N1CCC(C(O)(c2ccc3c(c2)OCO3)c2ccc3c(c2)OCO3)CC1 [JZL184] (first compound 0.015 µM, partner dose 1 µM) the cell count was 104%.
Nc1ncn([C@H]2C[C@H](O)[C@@H](CO)O2)c(=O)n1 [decitabine] + O=C(Oc1ccc([N+](=O)[O-])cc1)N1CCC(C(O)(c2ccc3c(c2)OCO3)c2ccc3c(c2)OCO3)CC1 [JZL184] (first compound 0.1 µM, partner dose 1 µM) gave a cell count of 70.2%.
With O=C(/C=C/c1cccnc1)NCCCCC1CCN(C(=O)c2ccccc2)CC1 + Cc1cc(SCc2sc(-c3ccc(C(F)(F)F)c(F)c3)nc2C)ccc1OCC(=O)O [GW0742] (first compound 0.01 µM, partner dose 2 µM) the cell count was 46.2%.
Molecule CS(=O)(=O)c1ccc(C(=O)Nc2ccc(Cl)c(-c3ccccn3)c2)c(Cl)c1 [vismodegib] + C/C(O)=C(\C#N)C(=O)Nc1cc(Br)ccc1Br [LFM-A13] (first compound 1 µM, partner dose 2 µM) has a cell count of 98.2%.
Molecule CS(=O)(=O)CCNCc1ccc(-c2ccc3ncnc(Nc4ccc(OCc5cccc(F)c5)c(Cl)c4)c3c2)o1 [lapatinib] + Cc1cc(SCc2sc(-c3ccc(C(F)(F)F)c(F)c3)nc2C)ccc1OCC(=O)O [GW0742] (first compound 0.8 µM, partner dose 2 µM) has a cell count of 99%.
NC1(c2ccc(-c3nc4ccn5c(=O)[nH]nc5c4cc3-c3ccccc3)cc2)CCC1 + C/C(O)=C(\C#N)C(=O)Nc1cc(Br)ccc1Br [LFM-A13] (first compound 0.4 µM, partner dose 2 µM) showed a cell count of 79.3%.
Molecule CC(=O)c1c(C)c2cnc(Nc3ccc(N4CCNCC4)cn3)nc2n(C2CCCC2)c1=O [palbociclib] + O=C(Oc1ccc([N+](=O)[O-])cc1)N1CCC(C(O)(c2ccc3c(c2)OCO3)c2ccc3c(c2)OCO3)CC1 [JZL184] (first compound 0.04 µM, partner dose 1 µM) has a cell count of 107%.
